Measurements taken from US11285169B2, “Methods for modulating chemotherapeutic cytotoxicity” (The United States of America, as represented by the …, priority 2013, dated 2022).
Structures can show the parent of a compound that is named as a salt. Where two headings read alike, the source gives them in different places.

Key:
[1] = system: CD47 deficient (CD47 KO) Jurkat T cells; test: cells; conditions: Homo sapiens, 48 h, read-out: AC50 (μM) CD47 KO
WT Jurkat cells [2] = test: cells; conditions: Homo sapiens, 48 h, read-out: AC50 (μM) WT
[3] = system: CD47 deficient (CD47 KO) Jurkat T cells; conditions: for Δ LogAC50 CD47KO-WT: log AC50 difference CD47 KO minus WT
WT Jurkat cells [4] = system: WT Jurkat cells
[5] = CD47 KO Jurkat T cells, 48 hours, 10^-9 to 10^-4 M, CellTiter-Glo
[6] = WT Jurkat cells, 48 hours, 10^-9 to 10^-4 M, CellTiter-Glo
[7] = difference CD47 KO minus WT Jurkat cells, 48 hours

Structure (SMILES) | Maximal Response CD47 KO (RLU) [3, 5] [RLU] | Maximal Response WT (RLU) (WT Jurkat cells [4]; [6]) | further results
CCC1=C[C@@H]2CN(C1)Cc1c([nH]c3ccccc13)[C@@](C(=O)OC)(c1cc3c(cc1OC)N(C)[C@H]1[C@@](O)(C(=O)OC)[C@H](OC(C)=O)[C@]4(CC)C=CCN5CC[C@]31[C@@H]54)C2 [Vinorelbine] |  |  | AC50 [1]: 0.0209 µM; AC50 (WT Jurkat cells [2]): 0.0066 µM; sensitivity of CD47-expressing versus deficient Jurkat T cells ([3]; 48 hours): differing sensitivities; Δ LogAC50 CD47KO-WT [3]: 0.5
C=C1C(=O)[C@]23[C@H](O)[C@H]1CC[C@H]2[C@@]12CO[C@]3(O)[C@@H](O)[C@@H]1C(C)(C)CC[C@@H]2O [Oridonin] |  |  | AC50 [1]: 7.43 µM; Δ LogAC50 CD47KO-WT [3]: 0.5
CC(C)n1nc(-c2ccc3oc(N)nc3c2)c2c(N)ncnc21 [INK-128] |  |  | AC50 [1]: 4.18 µM; AC50 (WT Jurkat cells [2]): 0.332 µM
COc1cccc2c1C(=O)c1c(O)c3c(c(O)c1C2=O)C[C@@](O)(C(=O)CO)C[C@@H]3O[C@H]1C[C@H](N)[C@@H](O)[C@H](C)O1 [Epirubicin hydrochloride] | 49.805 |  | AC50 [1]: 1.05 µM; Δ LogAC50 CD47KO-WT [3]: 0.6
Nc1ccccc1NC(=O)c1ccc(CNc2nccc(-c3cccnc3)n2)cc1 [Mocetinostat] |  |  | AC50 [1]: 2.64 µM; AC50 (WT Jurkat cells [2]): 0.59 µM
N#Cc1c(O)c2c(-c3ccc(-c4ccccc4O)cc3)csc2[nH]c1=O [A-769662] | 125.676 | 69.086 | Δ Maximal Response CD47KO-WT [3, 7]: 56.59
O=C1c2c(O)cc(O)cc2O[C@H](c2cc(O)c(O)c(O)c2)[C@H]1O [Dihydromyricetin] | 36.707 | 15.036 | 
Clc1ccc2ncc(-c3cccc(NC4CNC4)n3)n2c1 [NCGC00241410-01] | 41.906 | 11.766 | Δ Maximal Response CD47KO-WT [3, 7]: 30.14
NC(=O)NO [Hydroxyurea] | 47.712 | 5.365 | 
COc1ccc(C(=O)c2c(C)n(CCN3CCOCC3)c3ccccc23)cc1 [Pravadoline] |  |  | Maximal Response WT (RLU) (WT Jurkat cells [4]): 83.446 RLU; Maximal Response CD47 KO (RLU) [3]: 110.289 RLU
Cc1c(Cn2c(C)nc3c(C(=O)O)cc(N4CCOCC4)cc32)cccc1C(F)(F)F [GSK-2636771] | 51.53 | 26.827 | 
N#C/C(=C\c1ccc(O)c(O)c1)C(=O)NCc1ccccc1 [Tyrphostin B42] | 67.867 | 35.116 | Δ Maximal Response CD47KO-WT [3, 7]: 32.751
CC(C)OC(=O)C(C(=O)OC(C)C)=C1SC=CS1 [Malotilate] | 81.666 | 32.716 | 
COc1ccc(Cn2ccc3ccc(C(=O)NO)cc32)cc1 [PCI-34051] |  |  | Maximal Response WT (RLU) (WT Jurkat cells [4]): 33.723 RLU; Maximal Response CD47 KO (RLU) [3]: 74.801 RLU; Δ Maximal Response CD47KO-WT [3]: 41.078
C[C@]12CCC(=O)C=C1CC[C@@H]1[C@@H]2CC[C@@]2(C)[C@H]1CC[C@]2(C)O [Methyltestosterone] |  |  | Maximal Response WT (RLU) (WT Jurkat cells [4]): 19.391 RLU; Maximal Response CD47 KO (RLU) [3]: 45.934 RLU
CN(C)[C@@H]1C(O)=C(C(N)=O)C(=O)[C@@]2(O)C(O)=C3C(=O)c4c(O)cccc4[C@@](C)(O)[C@H]3[C@H](O)[C@@H]12 [Oxytetracycline] | 71.104 | 40.887 | 
CC(=O)O[C@@]12CO[C@@H]1C[C@H](O)[C@@]1(C)C(=O)[C@H](O)C3=C(C)[C@@H](OC(=O)[C@H](O)[C@@H](NC(=O)OC(C)(C)C)c4ccccc4)C[C@@](O)([C@@H](OC(=O)c4ccccc4)[C@H]21)C3(C)C [Docetaxel] | 57.66 | 24.806 | 
O=C1NC(=O)[C@@H](c2cn3c4c(cccc24)CCC3)[C@@H]1c1c[nH]c2ccccc12 [Tivantinib] | 35.424 | 9.411 | 
C[C@H](NC(=O)C(=O)Nc1ccccc1C(C)(C)C)C(=O)N[C@@H](CC(=O)O)C(=O)COc1c(F)c(F)cc(F)c1F [Emricasan] |  |  | Maximal Response WT (RLU) (WT Jurkat cells [4]): 26.974 RLU; Maximal Response CD47 KO (RLU) [3]: 69.759 RLU
CCN(CCO)CCCC(C)Nc1ccnc2cc(Cl)ccc12 (stereo not drawn) [Hydroxychloroquine sulfate] | 112.507 | 88.656 | 
C=CCc1cccc(/C=N/NC(=O)CN2CCN(Cc3ccccc3)CC2)c1O [PAC-1] | 41.834 | 10.752 | Δ Maximal Response CD47KO-WT [3, 7]: 31.082
COc1cccc(-c2ccc(NC(=O)C3=C(C(=O)O)CCC3)c(F)c2)c1 [Vidofludimus] | 64.725 | 19.287 | 
COc1cc([C@@H]2c3cc4c(cc3[C@H](O)[C@H]3COC(=O)[C@@H]23)OCO4)cc(OC)c1OC [Picropodophyllin] | 37.377 | 12.497 | 

Structure (SMILES) | Maximal Response CD47 KO (RLU) [3, 5] [RLU] | Maximal Response WT (RLU) (WT Jurkat cells [4]; [6]) | further results
NC(=O)c1noc([C@H](CCCC2CCCCC2)CC(=O)NO)n1 [UK-383367] | 49.091 | 13.282 | Δ Maximal Response CD47KO-WT [3, 7]: 35.809
COc1cc(Oc2ccnc3cc(OC)c(OC)cc23)ccc1NC(=O)NC(C)c1nccs1 (stereo not drawn) [KI-20227] | 42.569 | 12.143 | Δ Maximal Response CD47KO-WT [3, 7]: 30.426
C[C@]12CC[C@@H]3c4ccc(OC(=O)N(CCCl)CCCl)cc4CC[C@H]3[C@@H]1CC[C@@H]2O [Estramustine] |  |  | Maximal Response WT (RLU) (WT Jurkat cells [4]): 105.466 RLU; Maximal Response CD47 KO (RLU) [3]: 135.618 RLU
N[C@@H](CSC(c1ccccc1)(c1ccccc1)c1ccccc1)C(=O)O [S-Trityl-L-cysteine] | 80.305 | 33.811 | 
Nc1nc(O)c2ncn(COC(CO)CO)c2n1 [Ganciclovir] | 69.097 | 6.562 | 
CNC(=O)c1nn(C)c2c1C(C)(C)Cc1cnc(Nc3ccc(N4CCN(C)CC4)cc3)nc1-2 [Milciclib] | 34.643 | 3.772 | 
O=C1C=CC[C@@H]2[C@H]3CCCN4CCC[C@@H](CN12)[C@@H]34 [Sophocarpine] | 83.612 | 40.909 | 
CS(=O)(=O)Oc1ccc2c(NC(N)=O)c(C(=O)c3ccc(Cl)cc3Cl)oc2c1 [Lirimilast] | 87.201 | 61.864 | 
CC(=O)O[C@@]12CO[C@@H]1C[C@H](O)[C@@]1(C)C(=O)[C@H](O)C3=C(C)[C@@H](O)C[C@@](O)([C@@H](OC(=O)c4ccccc4)[C@H]21)C3(C)C [10-Deacetylbaccatin] |  |  | Maximal Response WT (RLU) (WT Jurkat cells [4]): 39.362 RLU; Maximal Response CD47 KO (RLU) [3]: 76.768 RLU; Δ Maximal Response CD47KO-WT [3]: 37.406
C=CC(=O)Nc1cccc(Oc2nc(Nc3ccc(N4CCN(C)CC4)cc3)ncc2Cl)c1 [WZ-3146] |  |  | AC50 (WT Jurkat cells [4]; read-out: AC50 (μM) WT, WT Jurkat cells, cell viability, 48 hours): 4.18 µM; Δ LogAC50 CD47KO-WT [3]: 0.5; AC50 ([3]; read-out: AC50 (μM) CD47 KO, CD47 KO Jurkat T cells, cell viability, 48 hours): 13.2 µM
CC1(C)Cc2c(-c3ccccc3)c(-c3ccc(Cl)cc3)c(CC(=O)O)n2C1 [Licofelone] | 32.374 | 9.166 | 
CNC(=O)c1cc(Oc2ccc(NC(=O)Nc3cc(C(C)(C)C)nn3-c3ccc4ncccc4c3)c(F)c2)ccn1 [DCC-2036] | 41.19 | 3.812 | 
COc1ccc(C(=O)c2c(C)n(CCN3CCOCC3)c3cc(I)ccc23)cc1 [AM-630] |  |  | Maximal Response WT (RLU) (WT Jurkat cells [4]): 12.87 RLU; Maximal Response CD47 KO (RLU) [3]: 36.125 RLU; Δ Maximal Response CD47KO-WT [3]: 23.255
N[C@@H](Cc1ccc(O)c(O)c1)C(=O)O [Levodopa] | 77.71 | 43.316 | 
CC(C)NC[C@@H](C(=O)N1CCN(c2ncnc3c2[C@H](C)C[C@H]3O)CC1)c1ccc(Cl)cc1 [GDC-0068] | 31.005 | 2.029 | 
CN1CCC(COc2cnc(-c3cccc(Cn4nc(-c5cccc(C#N)c5)ccc4=O)c3)nc2)CC1 [EMD-1214063] | 39.443 | 4.948 | 
O=c1cc(-c2ccccc2)oc2cc(O)c(O)c(O)c12 [Baicalein] | 91.667 | 63.506 | 
CO[C@H]1/C=C/O[C@@]2(C)Oc3c(C)c(O)c4c(O)c(c(/C=N/N5CCN(C6CCCC6)CC5)c(O)c4c3C2=O)NC(=O)/C(C)=C\C=C\[C@H](C)[C@H](O)[C@@H](C)[C@@H](O)[C@@H](C)[C@H](OC(C)=O)[C@@H]1C [Rifapentine] | 52.75 | 2.402 | 
CCNC(=O)C[C@@H]1N=C(c2ccc(Cl)cc2)c2cc(OC)ccc2-n2c(C)nnc21 [I-BET762] | 41.586 | 9.858 | 
Clc1ccc(Nc2nnc(Cc3ccncc3)c3ccccc23)cc1 [Vatalanib] | 60.983 | 14.015 | 
CC1(C)CC[C@]2(C(=O)O)CC[C@]3(C)C(=CC[C@@H]4[C@@]5(C)CC[C@H](O)C(C)(C)[C@@H]5CC[C@]43C)[C@@H]2C1 [Oleanolic acid] | 56.286 | 26.521 | 
COc1ccc(CCC(=O)c2c(O)cc(O[C@@H]3O[C@H](CO)[C@@H](O)[C@H](O)[C@H]3O[C@@H]3O[C@@H](C)[C@H](O)[C@@H](O)[C@H]3O)cc2O)cc1O [Neohesperidin dihydrochalcone] | 31.011 | 9.336 | 
CNC(=O)CN1CCC(Oc2cc3c(Nc4cccc(Cl)c4F)ncnc3cc2OC)CC1 [Sapitinib] | 42.354 | 14.043 | 
